± gives the uncertainty stated by the source. Shown are siRNA guide strands that differ only in the seed, positions 2 to 7.
Legend:
H460 = experiment: cell viability relative to lipid-only control; higher = less toxic; conditions: concentration: 10 nM; 96 h; Homo sapiens
HeyA8 = experiment: as above; conditions: concentration: 10 nM; 96 h; Homo sapiens
M565 = experiment: as above; conditions: concentration: 10 nM; 96 h; Mus musculus
3LL = experiment: cell viability relative to siNT1 control; HeyA8 human ovarian and H460 human lung cancer; M565 mouse liver and 3LL mouse lung cancer; siNT1 is a non-toxic control siRNA; higher = less toxic; conditions: concentration: 10 nM; 96 h; Mus musculus
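For cell viability relative to lipid-only control in this document: reverse lipid transfection in 384-well plates, in triplicate, of duplexes on a non-toxic 19mer backbone with passenger strand 2′-O-methylated at positions 1 and 2, luminescence viability read-out.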
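For cell viability relative to siNT1 control in this document: Luminescence-based viability of cells reverse transfected in 384-well plates with lipid-complexed siRNAs built on a non-toxic 19mer backbone whose passenger strand carries 2′-O-methyl groups at positions 1 and 2, triplicates.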

Sequence	cell viability (H460)	cell viability (HeyA8)	cell viability (M565)	cell viability (3LL)
UGAUCUAACAUGUAAACCAAA	75.1 ± 11%	69.5 ± 2.2%	70.9 ± 6.5%	92.4 ± 14%
UGAUCUCACAUGUAAACCAAA	41.8 ± 3.2%	40.4 ± 3.1%	29 ± 7.4%	82.7 ± 9%
UGAUCUGACAUGUAAACCAAA	51.3 ± 1.6%	57.4 ± 3.8%	48.7 ± 2.4%	57.8 ± 14%
UGAUCUUACAUGUAAACCAAA	56.9 ± 6.6%	40 ± 1.2%	58.3 ± 5.3%	96.7 ± 20%
UGAUGAAACAUGUAAACCAAA	56.4 ± 5.9%	76.6 ± 7.8%	55.9 ± 6.8%	74.4 ± 12%
UGAUGACACAUGUAAACCAAA	41 ± 3.6%	30.1 ± 4.1%	44.9 ± 7.1%	54.6 ± 10%
UGAUGAGACAUGUAAACCAAA	45.9 ± 3.9%	65.8 ± 4%	24.3 ± 2.7%	78.1 ± 9.1%
UGAUGAUACAUGUAAACCAAA	44.3 ± 4.4%	45.5 ± 2.6%	20.4 ± 3.9%	32.3 ± 4.2%
UGAUGCAACAUGUAAACCAAA	35.8 ± 2.3%	36 ± 1%	32.3 ± 6.4%	37.9 ± 7.2%
UGAUGCCACAUGUAAACCAAA	7.69 ± 2%	4.07 ± 0.055%	32.3 ± 5.8%	22 ± 9.9%
UGAUGCGACAUGUAAACCAAA	54.2 ± 8.3%	51.9 ± 3.6%	27 ± 6.1%	24.2 ± 4.8%
UGAUGCUACAUGUAAACCAAA	20.3 ± 0.36%	3.65 ± 0.11%	9.65 ± 1.4%	13.9 ± 3.8%
UGAUGGAACAUGUAAACCAAA	35.2 ± 5.5%	24.9 ± 1.4%	27.2 ± 2.2%	72.6 ± 13%
UGAUGGCACAUGUAAACCAAA	18.9 ± 1.4%	4.2 ± 0.36%	21.7 ± 4.9%	33.1 ± 4.6%
UGAUGGGACAUGUAAACCAAA	44.4 ± 1.8%	21.2 ± 0.81%	29.1 ± 8%	19.7 ± 3%
UGAUGGUACAUGUAAACCAAA	58.7 ± 3.5%	62.1 ± 8.9%	29.6 ± 9.3%	33.8 ± 12%
UGAUGUAACAUGUAAACCAAA	69.9 ± 8.5%	18.6 ± 1.9%	42.9 ± 3.3%	89 ± 19%
UGAUGUCACAUGUAAACCAAA	57.8 ± 13%	15.7 ± 1.4%	27.6 ± 5.7%	45.5 ± 11%
UGAUGUGACAUGUAAACCAAA	71.9 ± 18%	57.7 ± 5.1%	59.7 ± 6.3%	83.2 ± 11%
UGAUGUUACAUGUAAACCAAA	60.7 ± 6.5%	51.7 ± 4.2%	33.4 ± 3%	82.3 ± 16%
UGAUUAAACAUGUAAACCAAA	76.7 ± 22%	81.8 ± 6.1%	54.7 ± 7.3%	72.3 ± 16%
UGAUUACACAUGUAAACCAAA	46.6 ± 13%	41 ± 1.8%	36 ± 4.5%	56.3 ± 12%
UGAUUAGACAUGUAAACCAAA	70.9 ± 5.7%	82.3 ± 13%	64.4 ± 8.5%	70.6 ± 14%
UGAUUAUACAUGUAAACCAAA	69.3 ± 4.5%	52.3 ± 6.5%	14.1 ± 2.3%	42 ± 14%
UGAUUCAACAUGUAAACCAAA	40.4 ± 1.6%	37.7 ± 7.2%	13.8 ± 1.8%	41 ± 2.8%
UGAUUCCACAUGUAAACCAAA	27.7 ± 2.7%	15.3 ± 1.8%	22.2 ± 2.7%	36.5 ± 8.6%
UGAUUCGACAUGUAAACCAAA	37 ± 4.4%	41.6 ± 2.8%	10.3 ± 1.9%	46 ± 10%
UGAUUCUACAUGUAAACCAAA	49.6 ± 6.9%	37 ± 0.64%	10.1 ± 0.59%	5.37 ± 1.7%
UGAUUGAACAUGUAAACCAAA	58.4 ± 8.5%	51.7 ± 6.4%	90 ± 9.3%	77.8 ± 17%

From the supplement of paper PMC6206098
